Binding signal data for 31 molecules are collected here from PMC9911399, “Two distinct binding modes provide the RNA-binding protein RbFox with extraordinary sequence specificity”.

T1: RBFOX1 RRM (Homo sapiens, UniProt Q9NWB1 109-208)
T1 sequence: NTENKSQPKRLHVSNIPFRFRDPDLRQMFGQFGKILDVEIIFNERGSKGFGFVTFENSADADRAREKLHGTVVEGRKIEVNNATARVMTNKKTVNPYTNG

B1: CGGAACU (DNA:RNA)
RNA: GGGAGACCGGAAUUCAGAUUGUCCCGGAACUUUAAAUCCCGUCGUAGCCACCA
DNA 1: CAATCTGAATTCCGGTCTCCC
DNA 2: TGGTGGCTACGACGGGATT
B2: CCGUCAC (DNA:RNA)
RNA: B1 RNA with G26C, A28U, A29C, C30A, U31C
DNA 1: CAATCTGAATTCCGGTCTCCC
DNA 2: TGGTGGCTACGACGGGATT
B3: AGAAUAG (DNA:RNA)
RNA: B1 RNA with C25A, G27A, A29U, C30A, U31G
DNA 1: CAATCTGAATTCCGGTCTCCC
DNA 2: TGGTGGCTACGACGGGATT
B4: UUGUCGC (DNA:RNA)
RNA: B1 RNA with C25U, G26U, A28U, A29C, C30G, U31C
DNA 1: CAATCTGAATTCCGGTCTCCC
DNA 2: TGGTGGCTACGACGGGATT
B5: AAUCACC (DNA:RNA)
RNA: B1 RNA with C25A, G26A, G27U, A28C, U31C
DNA 1: CAATCTGAATTCCGGTCTCCC
DNA 2: TGGTGGCTACGACGGGATT
B6: UGUGGGG (DNA:RNA)
RNA: B1 RNA with C25U, G27U, A28G, A29G, C30G, U31G
DNA 1: CAATCTGAATTCCGGTCTCCC
DNA 2: TGGTGGCTACGACGGGATT
B7: CACGUCG (DNA:RNA)
RNA: B1 RNA with G26A, G27C, A28G, A29U, U31G
DNA 1: CAATCTGAATTCCGGTCTCCC
DNA 2: TGGTGGCTACGACGGGATT
B8: UCGAAUC (DNA:RNA)
RNA: B1 RNA with C25U, G26C, C30U, U31C
DNA 1: CAATCTGAATTCCGGTCTCCC
DNA 2: TGGTGGCTACGACGGGATT
B9: UCUCCUG (DNA:RNA)
RNA: GGGAGACCGGAAUUCAGAUUGUCCUCUCCUGUUAAAUCCCGUCGUAGCCACCA
DNA 1: CAATCTGAATTCCGGTCTCCC
DNA 2: TGGTGGCTACGACGGGATT
B10: GAUUGCC (DNA:RNA)
RNA: B1 RNA with C25G, G26A, G27U, A28U, A29G, U31C
DNA 1: CAATCTGAATTCCGGTCTCCC
DNA 2: TGGTGGCTACGACGGGATT
B11: UCUCAUU (DNA:RNA)
RNA: B9 RNA with C29A, G31U
DNA 1: CAATCTGAATTCCGGTCTCCC
DNA 2: TGGTGGCTACGACGGGATT
B12: GUUACAC (DNA:RNA)
RNA: B9 RNA with U25G, C26U, C28A, U30A, G31C
DNA 1: CAATCTGAATTCCGGTCTCCC
DNA 2: TGGTGGCTACGACGGGATT
B13: AAUCCGA (DNA:RNA)
RNA: B9 RNA with U25A, C26A, U30G, G31A
DNA 1: CAATCTGAATTCCGGTCTCCC
DNA 2: TGGTGGCTACGACGGGATT
B14: CGUCCCC (DNA:RNA)
RNA: B1 RNA with G27U, A28C, A29C, U31C
DNA 1: CAATCTGAATTCCGGTCTCCC
DNA 2: TGGTGGCTACGACGGGATT
B15: GAAAUCA (DNA:RNA)
RNA: B1 RNA with C25G, G26A, G27A, A29U, U31A
DNA 1: CAATCTGAATTCCGGTCTCCC
DNA 2: TGGTGGCTACGACGGGATT
B16: UUCCACG (DNA:RNA)
RNA: B9 RNA with C26U, U27C, C29A, U30C
DNA 1: CAATCTGAATTCCGGTCTCCC
DNA 2: TGGTGGCTACGACGGGATT
B17: CUCUCUG (DNA:RNA)
RNA: B9 RNA with U25C, C26U, U27C, C28U
DNA 1: CAATCTGAATTCCGGTCTCCC
DNA 2: TGGTGGCTACGACGGGATT
B18: AUAGUGG (DNA:RNA)
RNA: B9 RNA with U25A, C26U, U27A, C28G, C29U, U30G
DNA 1: CAATCTGAATTCCGGTCTCCC
DNA 2: TGGTGGCTACGACGGGATT
B19: UGCAACC (DNA:RNA)
RNA: B1 RNA with C25U, G27C, U31C
DNA 1: CAATCTGAATTCCGGTCTCCC
DNA 2: TGGTGGCTACGACGGGATT
B20: UUGGUCA (DNA:RNA)
RNA: B1 RNA with C25U, G26U, A28G, A29U, U31A
DNA 1: CAATCTGAATTCCGGTCTCCC
DNA 2: TGGTGGCTACGACGGGATT
B21: GCGGUCG (DNA:RNA)
RNA: B1 RNA with C25G, G26C, A28G, A29U, U31G
DNA 1: CAATCTGAATTCCGGTCTCCC
DNA 2: TGGTGGCTACGACGGGATT
B22: UAAGGUC (DNA:RNA)
RNA: B9 RNA with C26A, U27A, C28G, C29G, G31C
DNA 1: CAATCTGAATTCCGGTCTCCC
DNA 2: TGGTGGCTACGACGGGATT
B23: CGUAAGA (DNA:RNA)
RNA: B1 RNA with G27U, C30G, U31A
DNA 1: CAATCTGAATTCCGGTCTCCC
DNA 2: TGGTGGCTACGACGGGATT
B24: GUUUACA (DNA:RNA)
RNA: B1 RNA with C25G, G26U, G27U, A28U, U31A
DNA 1: CAATCTGAATTCCGGTCTCCC
DNA 2: TGGTGGCTACGACGGGATT
B25: UGCCAGU (DNA:RNA)
RNA: B1 RNA with C25U, G27C, A28C, C30G
DNA 1: CAATCTGAATTCCGGTCTCCC
DNA 2: TGGTGGCTACGACGGGATT
B26: UAUUUAU (DNA:RNA)
RNA: B9 RNA with C26A, C28U, C29U, U30A, G31U
DNA 1: CAATCTGAATTCCGGTCTCCC
DNA 2: TGGTGGCTACGACGGGATT
B27: GUUAUGU (DNA:RNA)
RNA: B1 RNA with C25G, G26U, G27U, A29U, C30G
DNA 1: CAATCTGAATTCCGGTCTCCC
DNA 2: TGGTGGCTACGACGGGATT
B28: CCUCAGG (DNA:RNA)
RNA: B9 RNA with U25C, C29A, U30G
DNA 1: CAATCTGAATTCCGGTCTCCC
DNA 2: TGGTGGCTACGACGGGATT
B29: AAGCUCU (DNA:RNA)
RNA: B1 RNA with C25A, G26A, A28C, A29U
DNA 1: CAATCTGAATTCCGGTCTCCC
DNA 2: TGGTGGCTACGACGGGATT
B30: CAUAGGU (DNA:RNA)
RNA: B1 RNA with G26A, G27U, A29G, C30G
DNA 1: CAATCTGAATTCCGGTCTCCC
DNA 2: TGGTGGCTACGACGGGATT
B31: AUAUGAC (DNA:RNA)
RNA: GGGAGACCGGAAUUCAGAUUGUCCAUAUGACUUAAAUCCCGUCGUAGCCACCA
DNA 1: CAATCTGAATTCCGGTCTCCC
DNA 2: TGGTGGCTACGACGGGATT

Numbering of substitutions follows the chain as printed; changes in the protein carry UniProt numbers. The list shows a part of the results.

In this experiment the target is T1, RBFOX1 RRM. The experiment in a line: EMSA; HiTS-Eq, 1 nM pool, 10 min; buffer printed only for the single-RNA assays: 10 mM Tris pH 7.5, 150 mM NaCl, 3.4 mM EDTA, 0.001% NP-40, 30 C. The settings on record: tags: His6 N-terminal (pET28a); label: 5' 32P. The essentials: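 Purified RbFox RRM, wild type or mutant, was incubated for 10 min in 50 µL with 1 nM of a 5′-radiolabelled RNA pool carrying 7 randomized nucleotides, whose flanks were annealed to DNA oligonucleotides, over a series of increasing protein concentrations. Unbound RNA was resolved on 8% native PAGE, cut out, reverse-transcribed, barcoded by PCR and sequenced on an Illumina HiSeq 2500. Relative association constants were derived from changes in read counts for each RNA species versus the control reaction and normalised to the cognate motif.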
(In general: A gel shift assay detects complexes by their altered migration in electrophoresis.)
For the molecule B1, the binding signal was 0.0254 KA relative to UGCAUGU. Regarding B2, the binding signal is 0.00351 KA relative to UGCAUGU. With B3, the binding signal was 0.0047 KA relative to UGCAUGU. Turning to B4, the binding signal was 0.0248 KA relative to UGCAUGU. Take B5: the binding signal was 0.00159 KA relative to UGCAUGU. In the case of B6, the binding signal was 0.0122 KA relative to UGCAUGU.

Take B7: the binding signal is 0.00524 KA relative to UGCAUGU. With B8, the binding signal is 0.0109 KA relative to UGCAUGU. For B9 the value was 0.0131 KA relative to UGCAUGU; for B10, 0.0181 KA relative to UGCAUGU. Next, B11: 0.00456 KA relative to UGCAUGU; B12: 0.00626 KA relative to UGCAUGU; B13: 0.00338 KA relative to UGCAUGU. Regarding B14, the binding signal is 0.00217 KA relative to UGCAUGU.

Take B15: the binding signal was 0.00653 KA relative to UGCAUGU. With B16, the binding signal was 0.00321 KA relative to UGCAUGU. Consider B17, for which the binding signal was 0.0137 KA relative to UGCAUGU. Consider B18, for which the binding signal is 0.007 KA relative to UGCAUGU. Take B19: the binding signal is 0.0185 KA relative to UGCAUGU. In the case of B20, the binding signal was 0.0152 KA relative to UGCAUGU.

Consider B21, for which the binding signal was 0.0188 KA relative to UGCAUGU. Regarding B22, the binding signal was 0.0168 KA relative to UGCAUGU. Turning to B23, the binding signal was 0.00668 KA relative to UGCAUGU. B24: the binding signal is 0.00515 KA relative to UGCAUGU. On to B25, for which the binding signal was 0.0241 KA relative to UGCAUGU. In the case of B26, the binding signal is 0.00778 KA relative to UGCAUGU. For B27 the value was 0.0144 KA relative to UGCAUGU; for B28, 0.0146 KA relative to UGCAUGU.

As for B29, the binding signal was 0.00449 KA relative to UGCAUGU. Take B30: the binding signal was 0.00937 KA relative to UGCAUGU. As for B31, the binding signal is 0.00483 KA relative to UGCAUGU.
